The results in this text go back to PubChem BioAssay AID1347073 (National Center for Advancing Translational Sciences (NCATS), 2019).

Screen size: about 45,000 compounds; about 200 (0.44%) were called active. Roughly 7% stayed inconclusive and do not appear here. The call rests on the fitted dose curve; in most records, active means well fitted activation curve with a large enough effect; inconclusive means small, poorly fitted or top-dose-only effect; inactive means no such curve, though single readings can be large or run the other way. The list shows a part of the results.

The experiment can be described thus: qHTS of TDP-43 Inhibitors: NCGC Sytravon Library Screen. Further: 0% is about no effect; nearly all actives have a fitted effect of over 55% in size. As to conditions: yeast TDP-43 toxicity rescue, BacTiter-Glo growth, 24 h; series mostly up to 46.1 µM; growth rescue (activation): at the top concentration. In outline:
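TDP-43-expressing yeast, pregrown in raffinose, seeded at OD600 0.02 in galactose medium with compound for 24 hr at 30 deg C. Growth read by BacTiter-Glo luminescence, so rescue of toxicity appears as activation.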
Take `Cc1cc(C)nc(NS(=O)(=O)c2cccs2)c1`: the “growth rescue (activation)” value was inactive: -8.83%. On to `COC(=O)c1ccc(-n2nnc(-c3nc(-c4ccccc4Cl)no3)c2C)cc1`, for which the “growth rescue (activation)” value is inactive: 21.6%. The figure for `CN(C)CCCN(Cc1ccccc1)C(=S)Nc1cccc(C(F)(F)F)c1` is inactive: 17.3%; for `CSc1ccccc1COC(=O)Nc1ccccc1C` it is inactive: 11.6%; for `CCOC(=O)C1=C(C)NC(C)=C(C(=O)OCC)C1C(=O)OCC(=O)NCc1ccco1` it is inactive: -2.46%.

In the case of `COc1ccc2[nH]cc(CCn3ccc(=O)c(C)c3C)c2c1`, the “growth rescue (activation)” value is inactive: 15.9%. In the case of `Oc1c(C=C2N=c3ccccc3=N2)sc(=S)n1C1CCCCC1`, the “growth rescue (activation)” value is inactive: 15.5%. On to `CSCCC(NC(N)=O)C(=O)Nc1ccc2ccccc2c1` (stereo unspecified), for which the “growth rescue (activation)” value was inactive: 6.32%. Regarding `O=C(CN1C(=O)NC(Cc2c[nH]c3ccccc23)C1=O)Nc1ccc(F)cc1F` (stereo unspecified), the “growth rescue (activation)” value was inactive: -10.6%. On to `O=C(CCC(=O)Nc1ccc(F)cc1)N/N=C/c1c[nH]c2ccccc12`, for which the “growth rescue (activation)” value is inactive: 11.1%. Take `CC(=O)Nc1ccccc1NC(=O)C/C(C)=N/NC(=O)c1cccnc1`: the “growth rescue (activation)” value is inactive: -2%.

`CCCNC(=O)c1ccc2c(c1)nc(C)n2-c1cccc(C)c1`: the “growth rescue (activation)” value is inactive: 2.57%. For `CCCC(=O)N1CCC1(C)C(=O)Nc1cc(-c2ccccc2)nn1C` (stereo unspecified) the value was inactive: 5.5%; for `CSc1ccc(S(=O)(=O)N2CCC(C(=O)Nc3ccc(C(N)=O)cc3)CC2)cc1`, inactive: -22.2%. For `CCOc1ccccc1Nc1nc(-c2sc(C)nc2C)cs1`, the “growth rescue (activation)” value is inactive: 6.86%.

On to `COc1ccc(-n2nc(C(=O)NCC(=O)NCCCN3CC(C)CC(C)C3)c3ccccc3c2=O)cc1OC` (stereo unspecified), for which the “growth rescue (activation)” value was inactive: 10.4%. As for `Cc1cc(C(=O)N2CCCC(C(=O)c3ccc4ccccc4c3)C2)nn1C` (stereo unspecified), the “growth rescue (activation)” value was inactive: 21.9%. For the compound `CC(=O)Nc1ccc(NC(=O)c2c(C)nn(Cc3ccccc3Cl)c2C)cc1`, the “growth rescue (activation)” value is inactive: -8.82%. For the compound `Oc1[nH]c2ccc(Br)cc2c1N=Nc1ccc(C(F)(F)F)cn1`, the “growth rescue (activation)” value was inactive: 19.3%. For `O=C(Nc1c(C(=O)O)[nH]c2ccc(F)cc12)c1cccc(C(F)(F)F)c1` the value was inactive: 0.647%; for `O=C(CSc1nc2nn(-c3ccccc3)c(=O)c-2c2n1CCCCC2)Nc1ccccc1[N+](=O)[O-]`, inactive: 16.5%.

On to `Cc1ccsc1C(=O)NCCc1ccc(S(N)(=O)=O)cc1`, for which the “growth rescue (activation)” value is inactive: 4.4%. `Cc1cc(=O)oc2cc(OCC(=O)Nc3cccnc3)ccc12`: the “growth rescue (activation)” value is inactive: -0.0571%. With `Cc1nnc(NC(=O)NC(C)N2C(=O)C3C4C=CC(C4)C3C2=O)s1` (stereo unspecified), the “growth rescue (activation)” value is inactive: -0.496%.

Turning to `CC(C)c1cc(C(=O)N2CCCC(CCC(=O)N3CCN(c4ccccn4)CC3)C2)no1` (stereo unspecified), the “growth rescue (activation)” value is inactive: -0.612%. The figure for `COc1cccc(C(=O)NC(=S)Nc2ccc([N+](=O)[O-])cc2C)c1` is inactive: 15.3%; for `Cc1cc(OCC(=O)O/N=C(\N)c2ccccc2)ccc1Cl` it is inactive: 38.9%; for `O=C(Nc1ccccc1Cl)NC1(C(=O)NCC2CCCO2)CCCCC1` (stereo unspecified) it is inactive: 2.24%. `NC(=O)c1ccc[n+](CCC[n+]2cccc(C(N)=O)c2)c1`: the “growth rescue (activation)” value was inactive: 12.4%. As for `COCCCNC(=O)CCc1ccccc1`, the “growth rescue (activation)” value was inactive: -3.87%. In the case of `O=C(COC(=O)CCC1CCCC1)Nc1ccccc1Sc1ccccc1`, the “growth rescue (activation)” value is inactive: 8.53%. Take `O=C(O)CC1S/C(=N/N=C/C=C/c2ccccc2[N+](=O)[O-])NC1=O` (stereo unspecified): the “growth rescue (activation)” value is inactive: 2.03%. Take `Cc1cc(Cl)ccc1OCC(=O)NNC(=O)c1ccc(=O)[nH]c1`: the “growth rescue (activation)” value is inactive: -4.72%. Turning to `Cc1cccc(C)c1-n1nnnc1C(C)(C)N1CCN(N=O)CC1`, the “growth rescue (activation)” value was inactive: 15.1%. Take `N#CCCN(C(=O)CSc1nc2nc(-c3cccs3)cc(C(F)(F)F)c2c(=O)[nH]1)c1ccccc1`: the “growth rescue (activation)” value is inactive: 24.5%. For the compound `COc1ccccc1S(=O)(=O)Nc1cccc(S(=O)(=O)N2CCCC2)c1`, the “growth rescue (activation)” value is inactive: -7.49%. `CCOc1ccc2[nH]c3c(NCCc4ccc(OC)c(OC)c4)ncnc3c2c1`: the “growth rescue (activation)” value is inactive: 2.75%. On to `O=C(Nc1cccc(Cl)c1Cl)c1csc([C@H]2C[C@H](O)[C@@H](CO)O2)n1`, for which the “growth rescue (activation)” value was inactive: -1.33%. Turning to `CCC(=O)NC(=S)Nc1ccc(NC(=O)CC)cc1`, the “growth rescue (activation)” value is inactive: -6.81%. Consider `O=S(=O)(c1cccc(Br)c1)N1CCN(CCc2ccccc2)CC1`, for which the “growth rescue (activation)” value was inactive: 4.99%. With `CC(=O)Nc1c(C(=O)O)[nH]c2ccccc12`, the “growth rescue (activation)” value is inactive: 7.33%. On to `COc1cc(C(C)=O)ccc1COc1ccc(C(=O)O)cc1OC`, for which the “growth rescue (activation)” value was inactive: -32.3%.

Turning to `COc1ccccc1NC(=O)CNc1ccc(F)c(Cl)c1`, the “growth rescue (activation)” value is inactive: 14.9%. Regarding `CCOC(=O)c1csc(N)n1`, the “growth rescue (activation)” value is inactive: 3%. For `C=CCN1C(=O)/C(=N/n2cnnc2)c2ccccc21` the value was inactive: 25.4%. `Cc1ccc(N(Cc2ccc(C(=O)NN=C3CCN(C)CC3)cc2)S(C)(=O)=O)cc1C`: the “growth rescue (activation)” value is inactive: -15.3%. On to `NS(=O)(=O)c1ccc(CCNC(=O)c2cccc3ccccc23)cc1`, for which the “growth rescue (activation)” value is inactive: 5.12%. For the compound `CCOC(=O)C1CCCN(C(=O)CSc2ccccc2)C1` (stereo unspecified), the “growth rescue (activation)” value is inactive: 23.5%.

As to `O=C(Nc1ccccc1Cl)c1cc(C2CCCN(C(=O)c3cccc(O)c3)C2)on1` (stereo unspecified), the “growth rescue (activation)” value was inactive: 13.8%. The figure for `COc1ccc(Nc2cc(Nc3ccc(OC)cc3)ncn2)cc1` is inactive: 12.5%. For the compound `CCCCn1c2c(c(=N)c3c1CCC3)CCC2`, the “growth rescue (activation)” value was inactive: -4.81%. As for `O=C(CCC(=O)Nc1ccccc1)NNC(=O)CCc1ccccc1`, the “growth rescue (activation)” value is inactive: -1.93%. Regarding `CCOc1ncccc1C(=O)OCC(=O)Nc1cc(S(=O)(=O)N(CC)CC)ccc1C`, the “growth rescue (activation)” value was inactive: 3.45%. Consider `O=C(Nc1ccccc1)c1ccc(Nc2c([N+](=O)[O-])cc([N+](=O)[O-])c3ccccc23)cc1`, for which the “growth rescue (activation)” value was inactive: -12.1%. Take `O=S(=O)(c1ccc(Br)cc1)N1CCCN(Cc2ccccc2F)CC1`: the “growth rescue (activation)” value was inactive: -14.4%.

For the compound `CCn1c(CC(=O)Nc2ccccc2F)nnc1SCC(=O)NC1CCCC1`, the “growth rescue (activation)” value is inactive: 11.8%. The figure for `CC1CCN(C(=O)CCCC(=O)O)CC1` is inactive: 22.5%; for `CCN(CC)c1ccc(C2C(C(=O)OCCOC(C)C)=C(C)NC3=C2C(=O)CCC3)cc1` (stereo unspecified) it is inactive: -1.59%. In the case of `CC(C)(C)SCCNC(=O)CN(c1ccc(F)cc1)S(=O)(=O)c1ccccc1`, the “growth rescue (activation)” value was inactive: 10.1%. With `CN1C(=O)C2(NCCc3c2[nH]c2ccccc32)c2ccccc21` (stereo unspecified), the “growth rescue (activation)” value was inactive: -0.13%. As for `CCOC(=O)Nc1ccc2c(c1)N(C(=O)N(CC)CC)c1ccccc1CC2`, the “growth rescue (activation)” value was inactive: 3.53%. For `CCCCOCCCNC(=O)c1cccc(OC)c1` the value was inactive: -4.48%; for `Cc1ccc(Nc2nc3ccccc3c(=O)s2)cc1C`, inactive: -1.92%; for `OCCN1CCN(c2cc(-c3ccc4ccccc4c3)nc3ccnn23)CC1`, inactive: 9.25%. Regarding `CCOCCCNC(=O)c1c(NC(=O)c2nc(SC)ncc2Cl)sc2c1CCCC2`, the “growth rescue (activation)” value is inactive: 8.45%. As to `NS(=O)(=O)c1cccc(NC(=O)COC(=O)CCc2ccccc2)c1`, the “growth rescue (activation)” value is inactive: 12.4%. For `COc1ccc(NC(=O)C2C3C=CC4(O3)C2C(=O)N(CCN2CCCCC2C)C4C(=O)NC2CCCC(C)C2C)cc1` (stereo unspecified), the “growth rescue (activation)” value is inactive: 4.08%. As for `Cn1c(=O)n(C)c2cc(S(=O)(=O)NCc3ccccc3)ccc21`, the “growth rescue (activation)” value is inactive: 4.11%.

For `CC(=O)c1cccc(CN2CCN(CCC(C)C)C(CCO)C2)c1` (stereo unspecified), the “growth rescue (activation)” value was inactive: 31.4%. On to `O=C(Nc1nc2c(F)c(F)c(F)cc2s1)c1ccco1`, for which the “growth rescue (activation)” value was inactive: -12.3%. Take `CCCCNC(=O)C1CCC(=O)N1CCc1ccccc1` (stereo unspecified): the “growth rescue (activation)” value is inactive: 10%.

For the compound `CC(=O)N1CCN(C(=O)COc2ccc(Br)cc2)CC1`, the “growth rescue (activation)” value was inactive: -14.2%. Consider `CCCCn1c(N)c(N(CC)C(=O)c2cccc(F)c2)c(=O)[nH]c1=O`, for which the “growth rescue (activation)” value was inactive: -11%. Regarding `O=C(COC(=O)c1ccccn1)Nc1ccccc1OC(F)F`, the “growth rescue (activation)” value was inactive: 5.47%. `S=C(Nc1ccccc1)Nc1ccccc1Br`: the “growth rescue (activation)” value is inactive: 16.3%.

As for `CCN(CC)CCCNc1cc(C)nc2cc(-c3cccs3)nn12`, the “growth rescue (activation)” value was inactive: 0.186%. For `O=S(=O)(NCc1ccccc1)NCc1ccccc1F`, the “growth rescue (activation)” value was inactive: 29%. The figure for `Cc1ccc(OCC(=O)N(C)CC(=O)NCc2ccco2)c(Br)c1` is inactive: -4.2%; for `CCCc1ccc(S(=O)(=O)N2CCN(Cc3ccco3)CC2)cc1` it is inactive: 6.24%; for `CCCCCCOc1ccc(C(CC(=O)NC)C(=O)O)cc1` (stereo unspecified) it is inactive: 13.7%. `COc1ccc(OC)c(NC(=O)CCNC(=O)c2ccco2)c1`: the “growth rescue (activation)” value is inactive: -8.09%.

In the case of `COc1ccc(CCNC(=O)c2sc3cc(C)ccc3c2Cl)cc1`, the “growth rescue (activation)” value was inactive: -26%. For `COc1ccc(OC)c(NC(=O)c2cc3c(cc2Cl)N2CCCCCC2=NS3(=O)=O)c1`, the “growth rescue (activation)” value was inactive: -9.04%. Consider `O=C(CCc1ccccc1)NC1CCS(=O)(=O)C1` (stereo unspecified), for which the “growth rescue (activation)” value was inactive: -4.45%. The figure for `O=C(CSc1ccc([N+](=O)[O-])cn1)Nc1ccc2c(c1)OCCO2` is inactive: 3.49%; for `Cc1ccc(S(=O)(=O)N2CCCCC2)cc1NC(=O)COc1ccccc1` it is inactive: 7.8%. For `Cc1ccc(S(=O)(=O)CCN2CCN(c3ccccc3)CC2)cc1` the value was inactive: 0.53%; for `CC1CCCN(CCCNC(=O)c2cc3c(Cl)nc4ccccc4c3s2)C1` (stereo unspecified), inactive: -0.597%.

Consider `NCCNC[C@@H]1COC2(CCCCCCCCCCC2)O1`, for which the “growth rescue (activation)” value is inactive: 23.8%.

In the case of `CS(=O)(=O)N1CCN(C(=S)NCc2ccc(Cl)cc2)CC1`, the “growth rescue (activation)” value was inactive: -6.02%.

On to `CCc1nc2c(OCc3ccc(C#N)cc3)cccn2c1N(C)C(=O)c1ccco1`, for which the “growth rescue (activation)” value was inactive: 6.46%. For `O=S(=O)(Nc1ccc(Br)cc1)c1cccc(NC(=S)NCCN2CCOCC2)c1` the value was inactive: 1.29%; for `COc1ccc(/C=C/C(=O)Nc2nc(C)c(C(=O)N(C)C)s2)cc1OC`, inactive: 2.37%.

Regarding `COc1cc(/C=N/NC(=O)c2cccnc2)ccc1OCC(=O)Nc1ccc(C)cc1`, the “growth rescue (activation)” value was inactive: 10%.

As for `CC(C)(C)C(=O)CSc1ncccn1`, the “growth rescue (activation)” value is inactive: -4.51%. `CCCS(=O)(=O)NC(=O)C1(C)CCN(C(=O)c2cccc(OC(F)(F)F)c2)C1` (stereo unspecified): the “growth rescue (activation)” value was inactive: 5.85%.
